Results from PubChem BioAssay AID493208 (National Center for Advancing Translational Sciences (NCATS), 2011).
The campaign covered roughly 44,000 compounds. About 340 (0.77%) were called active. Roughly 5% stayed inconclusive and do not appear here. The call rests on the fitted dose curve; in most records, active means well fitted inhibition curve with a large enough effect; inconclusive means small, poorly fitted or top-dose-only effect; inactive means flat fitted curve, though single readings scatter. This is one part of the list.

experiment: Acumen qHTS Assay for Inhibitors of the mTORC1 Signaling Pathway in MEF (Tsc2-/-, p53-/-) Cells: Sytravon; conditions: phospho-rpS6 immunofluorescence/PI, 24 h; series mostly up to 38.3 µM; activity change, negative = inhibition: at the top concentration; further: nearly all actives have a fitted effect of over 50% in size;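 on activity change, negative = inhibition: plate controls were DMSO for no effect and rapamycin for full effect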
In short: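 Tsc2-/-, p53-/- mouse embryonic fibroblasts (empty-vector line) exposed to compound 24 hrs at 37 C, fixed, immunostained for phospho-rpS6 and counterstained with propidium iodide. Acumen laser scanning gives % positive cells from Alexa 488/PI ratio, thresholded using 7.5 nM rapamycin; PI count gives viability.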
Potency means the concentration at half of the fitted maximal effect.

| SMILES | activity change, negative = inhibition | Potency |
| --- | --- | --- |
| CCCCN1CC(c2nc3ccccc3n2CCCCOc2ccc(C)c(C)c2)CC1=O (stereo not drawn) | inactive: 3.09% | – |
| Cc1ccc(F)c(NC(=O)Nc2ccc3snnc3c2)c1 | inactive: -3.01% | – |
| CC(=O)N1CCCc2cc(S(=O)(=O)N(C)CC(=O)Nc3cccc(C)c3C)ccc21 | inactive: -3.8% | – |
| CCOc1ccc(CCNC(=O)c2cn(CC)c3ccc(S(=O)(=O)N4CCCCCC4)cc3c2=O)cc1OCC | inactive: -5.26% | – |
| O=C1c2[nH]nc(-c3ccccc3O)c2C(c2cccc(Cl)c2)N1Cc1cccnc1 (stereo not drawn) | inactive: 0.0067% | – |
| O=C(NCCN1CCN(c2cccc(Cl)c2)CC1)C1COc2ccccc2C1 (stereo not drawn) | inactive: -1.69% | – |
| Cc1cccc(CNC(=O)Cn2ccc3cc(S(=O)(=O)N4CCCC4)ccc32)c1 | inactive: -10.1% | – |
| Cc1ccc(S(=O)(=O)N(CCc2ccccc2)CC(=O)Nc2cc(C)ccc2C)cc1 | inactive: 5.95% | – |
| CCOC(=O)c1cc(-c2ccc(C)cc2)n(CCC(=O)Nc2ccc(C(C)C)cc2)c1C | inactive: -4.38% | – |
| CN(C)S(=O)(=O)c1ccc(C(=O)NC2CC(=O)N(c3ccc4c(c3)OCCO4)C2)cc1 (stereo not drawn) | inactive: -11.3% | – |
| COc1cc(C2C(C(=O)Nc3ccc(C)cc3C)=C(C)Nc3nc4ccccc4n32)cc(OC)c1OC (stereo not drawn) | inactive: -29.2% | – |
| Cc1cccc(NC(=O)CS(=O)(=O)c2nc(-c3ccccc3)cn2-c2cccc(Cl)c2)c1C | inactive: 8.9% | – |
| Cc1cccc(NC(=O)Cn2nnc(C(=O)Nc3ccccc3Br)c2N)c1C | inactive: 5.97% | – |
| COc1cccc(-c2nc(CS(=O)(=O)CC(=O)Nc3c(C)cc(C)cc3C)c(C)o2)c1 | inactive: -11.5% | – |
| COc1cccc(N2CCN(C(=O)C3CCN(S(=O)(=O)c4c(C)noc4C)CC3)CC2)c1 | inactive: 2.1% | – |
| CCOc1ccccc1NC(=O)c1nc2nc(C)cc(C(F)F)n2n1 | inactive: 4.37% | – |
| O=C(NC1CC(=O)N(c2ccc(Cl)cc2)C1)c1ccc2c(c1)OCO2 (stereo not drawn) | inactive: -0.869% | – |
| Cc1cc(NC(=O)N(C)CCc2c(C)nn(C)c2C)ccc1Br | inactive: 7.36% | – |
| Cc1ccc2c(=O)cc(C(=O)N(Cc3ccc(N(C)C)cc3)C3CCS(=O)(=O)C3)oc2c1 (stereo not drawn) | inactive: 4.02% | – |
| CCCN1CCN(CCCNC(=O)Cn2nc(CC)n3c(cc4occc43)c2=O)CC1 | inactive: -10.2% | – |
| CCc1cccc(C)c1NC(=O)CSc1nc2ccccc2nc1N1CCOCC1 | inactive: -6.13% | – |
| COc1ccc(Cn2c(SCc3ccc(C(=O)NCc4cccs4)cc3)nc3cccnc32)cc1 | inactive: -2.19% | – |
| CC1(C)O[C@H]2[C@@H](O1)[C@@H](C(=O)Nc1ccc(F)c(F)c1)O[C@@H]1OC(C)(C)O[C@@H]12 | inactive: 2.28% | – |
| Cc1cc(F)ccc1NS(=O)(=O)c1c(C)nc2scc(C)n2c1=O | inactive: -18.6% | – |

| SMILES | activity change, negative = inhibition | Potency |
| --- | --- | --- |
| COc1ccccc1CN1C(=O)CN(C2CCCCCC2)C(=O)C1c1ccc(C)cc1 (stereo not drawn) | inactive: -0.188% | – |
| CCOC(=O)c1cn(CC(=O)Nc2ccc(OC)cc2OC)nn1 | inactive: -2.97% | – |
| Fc1ccc(Nc2ncnc3onc(-c4ccc(Cl)cc4)c23)cc1Cl | inactive: -8.98% | – |
| CCOc1ccc(CCNC(=O)c2ccc3c(c2)N(Cc2ccc(C)cc2)CCS3)cc1 | inactive: -0.996% | – |
| O=C(C1CCCN(S(=O)(=O)c2ccc(Br)s2)C1)N1CCN(c2ccccc2F)CC1 (stereo not drawn) | inactive: -8.63% | – |
| CCN(CC)CCCNc1sc(S(=O)(=O)c2ccccc2)nc1S(=O)(=O)c1ccc(Cl)cc1 | – | active: 9.27 µM |
| CCOC(=O)c1c(C)[nH]c(CCC(=O)NC(C)c2ccccc2)c1C (stereo not drawn) | inactive: 1.56% | – |
| COc1ccc(C)cc1NC(=O)NC(C)c1c(-n2cccc2)sc(C)c1C (stereo not drawn) | inactive: -1.97% | – |
| CCN(C(=O)c1sc2nc3n(c(=O)c2c1C)CCCCC3)c1ccc(OC)cc1 | inactive: 3.05% | – |
| Cc1ccc(Cl)cc1NC(=O)Cn1c(=O)n(CCC(=O)NCc2ccc3c(c2)OCO3)c(=O)c2sccc21 | inactive: -1.02% | – |
| CCCC(=O)Nc1nnc(S(=O)(=O)N2CCCCCC2)s1 | inactive: 3.08% | – |
| COC(=O)C(NC(=O)CCc1c(C)nc2c(-c3ccccc3)c(C)nn2c1C)C(C)C (stereo not drawn) | inactive: -9.33% | – |
| COc1ccc(C2C(C(=O)Nc3ccccc3)=C(C)Nc3nc(SCC(=O)c4ccc(C)cc4)nn32)cc1 (stereo not drawn) | inactive: -5.61% | – |
| CC1=C(c2ccc(F)cc2)S(=O)(=O)N=C1N1CCC(C(=O)NCCc2ccccc2C)CC1 | inactive: -5.5% | – |
| Cc1c(C(=O)Nc2ccc(-n3c(C)nc4ccccc4c3=O)cc2)cccc1[N+](=O)[O-] | inactive: -0.303% | – |
| CC(C)Cc1ccc(S(=O)(=O)N2CCN(Cc3noc(CCC(=O)N4CCCCC4)n3)CC2)cc1 | inactive: -11.1% | – |
| CCOc1cc2c(cc1OCC)C(CC(=O)O)N(C(=O)Nc1ccccc1C(F)(F)F)CC2 (stereo not drawn) | inactive: 11.2% | – |
| Cc1cc(C)nc(-n2nc(C)c3c2NC(=O)CC3c2cccc(O)c2)n1 (stereo not drawn) | inactive: -2.01% | – |
| Cc1cc2nn(-c3ccc(F)cc3)nc2cc1NC(=O)c1cccc2c(Cl)cccc12 | inactive: -3.18% | – |
| CCOC(=O)c1ccc2c(c1)N(Cc1ccc(F)cc1Cl)C(=O)c1ccccc1S2(=O)=O | inactive: 0.258% | – |
| CCn1c(C)c(C)c2cc(C(=O)NCc3ccc(F)cc3)ccc21 | inactive: 1.36% | – |
| Cc1noc(-c2ccc(NC(C)c3ccccc3)c([N+](=O)[O-])c2)n1 (stereo not drawn) | inactive: 4.73% | – |
| CCOC(=O)CC(=O)CSc1nc2ccsc2c(=O)n1Cc1ccccc1 | inactive: -9.59% | – |
| CCC(=O)N1CCc2cc(Br)cc(S(=O)(=O)N3CCN(c4ccccc4OC)CC3)c21 | inactive: -1.6% | – |

| SMILES | activity change, negative = inhibition | Potency |
| --- | --- | --- |
| Cc1ccc(CNC(=O)c2nc(SCc3ccccc3C)ncc2Cl)cc1 | inactive: -3.38% | – |
| CC1(c2ccccc2)CC(C)(C)N(C(=O)c2cccc(Cl)c2)c2ccccc21 (stereo not drawn) | inactive: 6.47% | – |
| COc1ccccc1NC(=O)c1ccc(CN2C(=O)C(C)=C(c3ccc(C)c(C)c3)S2(=O)=O)cc1 | inactive: -10.8% | – |
| Cc1ccc(CNC(=O)c2ccc(CSCc3cccc(C)c3)o2)cc1 | inactive: 10.6% | – |
| Cc1cc(C)cc(-n2c(SCC(=O)N3CCOCC3)nc3c([nH]c4ccccc43)c2=O)c1 | inactive: -0.524% | – |
| Cc1ccc(C)c(OCCn2c(CCNC(=O)C3CCCCC3)nc3ccccc32)c1 | inactive: -4.27% | – |
| Cc1ccc(CCNS(=O)(=O)c2c(C)nc3sc(C)c(C)n3c2=O)cc1 | inactive: -3.46% | – |
| COc1cccc(-c2nnc(-c3ccccc3NC(=O)c3ccc(F)cc3F)o2)c1 | inactive: 1.5% | – |
| Cc1nc2ccn(Cc3cccs3)c(=O)c2cc1C(=O)N1CCN(c2ccccc2F)CC1 | inactive: -8.09% | – |
| O=C1C(=O)N(C2CCN(C(=O)c3ccccc3Cl)CC2)CCN1Cc1ccc(F)cc1 | inactive: 5.86% | – |
| COc1cccc(NC(=O)c2ccc3c(c2)CCN3S(C)(=O)=O)c1 | inactive: 4.01% | – |
| CC1CCN(S(=O)(=O)c2ccc3c(c2)N(CC(=O)NCCc2ccccc2)C(=O)CO3)CC1 | inactive: 1.56% | – |
| COc1ccc(C2=CC(c3ccccc3Cl)n3nc(-c4ccc(Cl)cc4)nc3N2)cc1 (stereo not drawn) | inactive: 1.86% | – |
| COC(=O)c1scc(-c2ccc(C)cc2)c1S(=O)(=O)N1CCN(c2ccc(C(C)=O)cc2)CC1 | inactive: 2.23% | – |
| Cc1ccc(Cl)cc1N1CCN(C(=O)Cn2cnc3sc(C)c(S(=O)(=O)N4CCC(C)CC4)c3c2=O)CC1 | inactive: -29.3% | – |
| COc1ccccc1CNC(=O)CCS(=O)(=O)c1ccc2c(c1)CCN2C(C)=O | inactive: 1.94% | – |
| Cc1nc2nc(NCc3ccc(Cl)cc3)[nH]n2c(=O)c1Cc1ccccc1 | inactive: 0.556% | – |
| CCCn1c(CCC(=O)Nc2ccc(OCC)cc2)nc2cccnc21 | inactive: 9.19% | – |
| CC1CCc2c(sc(NC(=O)C3c4ccccc4Oc4ccccc43)c2C#N)C1 (stereo not drawn) | inactive: 2.97% | – |
| Cc1ccc(-n2c(=O)c3c(C)c(C)sc3n(CC(=O)NCc3ccccc3)c2=O)cc1C | inactive: -13.3% | – |
| CCOC(=O)c1c(C)oc2nc(C)nc(NCc3ccc(F)cc3)c12 | inactive: -4.37% | – |
| COc1ccc(C(=O)Nc2nnc(SCc3cc(=O)c4cc(C)cc(C)c4[nH]3)s2)cc1 | inactive: -9.23% | – |
| Cc1ccc(CNC(=O)CCCn2c(=O)c3ccccc3n(CC(=O)Nc3ccc(C)c(C)c3)c2=O)cc1 | inactive: 1.04% | – |
| CCOc1ccc(CCNC(=O)CCCn2c(=O)c3cccn3c3ccccc32)cc1 | inactive: 5% | – |

| SMILES | activity change, negative = inhibition | Potency |
| --- | --- | --- |
| Cc1ccc(-n2ncc3c(NCCC4=CCCCC4)ncnc32)cc1 | inactive: 11.5% | – |
| COC(=O)NCC(c1cccnc1)N1CCN(c2ccc(F)cc2)CC1 (stereo not drawn) | inactive: -7.29% | – |
| Cc1ccc(Cl)cc1NC(=O)C(C)n1nc(-c2ccccc2)ccc1=O (stereo not drawn) | inactive: 3.97% | – |
| Cn1c(=O)c2c(nc(SCC(=O)Nc3ccccc3F)n2Cc2ccc(Cl)cc2)n(C)c1=O | inactive: 3.77% | – |
| COc1ccccc1N1CCN(S(=O)(=O)c2c(C)sc3ncn(CC(=O)N(C)c4ccc(Cl)cc4)c(=O)c23)CC1 | inactive: -3.71% | – |
| CCNC(=O)c1c(NC(=O)Cc2coc3cc(C)cc(C)c23)sc2c1CCCC2 | inactive: 2.32% | – |
| Oc1c(C(c2ccccc2F)N2CCN(Cc3ccccc3)CC2)sc2nc(-c3ccco3)nn12 (stereo not drawn) | inactive: 0.166% | – |
| Cc1c(C(=O)N2CCC(c3nc4ccccc4s3)CC2)oc2ccc(Cl)cc12 | inactive: 0.318% | – |
| Cc1ccc(Cl)cc1NC(=O)Cn1c(=O)oc2cc(S(=O)(=O)N3CCCC3)ccc21 | inactive: -6.85% | – |
| Cc1ccc2c(CC(=O)Nc3ccc(S(=O)(=O)N4CCCCC4)cc3)coc2c1 | inactive: -0.693% | – |
| Cc1cc(C)c2c(=O)nc(SCc3ccccc3C)n(C3CC3)c2n1 | inactive: 0% | – |
| Cc1ccc(NC(=O)c2cc(-c3ccc(Br)s3)nc3ccccc23)cc1F | inactive: -9.11% | – |
| CCOc1ccccc1N(C)C(=O)C1CCCN(c2ncnc3c2nc2n3CCCCC2)C1 (stereo not drawn) | inactive: -18.3% | – |
| Cc1ccc(-n2ncc3c(Nc4cccc(C)c4C)ncnc32)cc1 | inactive: 10.4% | – |
| COCCn1c(=NC(=O)c2ccc3c(c2)OCCO3)sc2cc(C(=O)OC)ccc21 | inactive: 1.34% | – |
| COc1ccc(C(=O)OC2=C(C(=O)c3ccccc3)N(C)S(=O)(=O)c3ccccc32)cc1OC | inactive: -6.4% | – |
| CCOc1ccc(CNC(=O)Cn2cc3c(n2)-c2c(oc(C(=O)N4CCOCC4)c2C)CC3)cc1 | inactive: -7.18% | – |
| Cc1ccc(CN2C(=O)C3(c4ccccc42)N(c2cccc(F)c2)C(=O)CS3(=O)=O)cc1 (stereo not drawn) | inactive: 2.72% | – |
| CCOC(=O)c1c(C)c(-c2ccccc2)n(CC(=O)Nc2cc(C)ccc2OC)c1C | inactive: -0.107% | – |
| Cc1ccccc1CN1CCC(CNc2ncnc3onc(-c4ccc(F)cc4)c23)CC1 | inactive: -5.35% | – |
| COc1cc(NC(=O)NC(C)c2c(-n3cccc3)sc3c2CCCC3)cc(OC)c1OC (stereo not drawn) | inactive: -0.599% | – |
